Source: the supplement of paper PMC3334620
Over roughly 33,000 sequences, “E-score (-0.5 to 0.5)” has its median near -0.012; the highest 2% begin near 0.29. The list shows a part of the results.

Target: T1, Ybr033w (UniProt P38073)
T1 sequence: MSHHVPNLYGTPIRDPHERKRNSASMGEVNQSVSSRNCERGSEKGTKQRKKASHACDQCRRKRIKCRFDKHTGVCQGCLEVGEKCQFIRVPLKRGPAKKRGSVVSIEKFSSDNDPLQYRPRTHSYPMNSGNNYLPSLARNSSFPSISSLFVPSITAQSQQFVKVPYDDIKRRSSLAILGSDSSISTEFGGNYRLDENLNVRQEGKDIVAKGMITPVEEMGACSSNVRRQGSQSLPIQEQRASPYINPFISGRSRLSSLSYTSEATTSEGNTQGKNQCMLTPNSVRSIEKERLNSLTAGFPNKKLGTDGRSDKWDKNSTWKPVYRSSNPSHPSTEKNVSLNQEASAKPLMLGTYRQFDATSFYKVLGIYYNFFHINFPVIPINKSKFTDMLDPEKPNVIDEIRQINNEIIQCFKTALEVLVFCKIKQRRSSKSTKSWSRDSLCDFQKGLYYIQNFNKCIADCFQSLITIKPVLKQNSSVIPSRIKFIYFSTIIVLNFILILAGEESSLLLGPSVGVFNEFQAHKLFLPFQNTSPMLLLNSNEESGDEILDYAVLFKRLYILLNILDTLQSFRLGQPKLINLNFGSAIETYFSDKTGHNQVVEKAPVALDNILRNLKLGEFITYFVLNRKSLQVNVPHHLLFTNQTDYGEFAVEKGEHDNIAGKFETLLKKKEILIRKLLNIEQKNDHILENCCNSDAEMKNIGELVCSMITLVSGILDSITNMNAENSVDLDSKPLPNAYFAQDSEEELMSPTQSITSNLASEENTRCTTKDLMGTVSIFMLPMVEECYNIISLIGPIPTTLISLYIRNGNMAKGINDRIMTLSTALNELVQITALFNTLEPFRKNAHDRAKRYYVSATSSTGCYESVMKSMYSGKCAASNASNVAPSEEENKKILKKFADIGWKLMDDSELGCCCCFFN
Assay: PBM E-score (8-mer binding enrichment) (E-score (-0.5 to 0.5)); higher = stronger / more preferred TF binding; most listed sequences are background and not binding sites
Conditions: protein concentration: 200 nM; construct: GST-full length
Protocol: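 Universal 'all 10-mer' protein binding microarrays (Agilent AMADID 015681) probed with GST-tagged S. cerevisiae TFs (full-length or DBD) made by in vitro transcription/translation (PURExpress), about 100-200 nM. Bound TF was detected with fluorescent anti-GST. Each ungapped 8-mer (which stands for itself and its reverse complement) is scored by the PBM enrichment score (E-score), a modified Wilcoxon-Mann-Whitney statistic from -0.5 to +0.5, computed with the Universal PBM Analysis Suite. Scale: above 0.35 generally sequence-specific binding.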

Sequence	PBM E-score
ATGTCTCC	-0.0377
ACCGGGAG	-0.268
AGGACCGG	-0.276
GGACCGGA	-0.0009
CTGGACGC	-0.321
CGTGAAGA	-0.00671
GAATATCA	0.259
ATATACAT	0.265
CCTCCAGC	-0.159
GAAACTAC	0.153
CTTGTTCC	0.27
CATTGTAG	0.09
ACGACCTC	0.219
AGGTATTG	0.0485
ATTGTTTA	0.296
GAACACTA	0.0403
ACGCACGA	0.03
CAGGCTAG	-0.289
ATAGTTCG	0.0202
CTGTGAAA	0.216
AAATTCCT	0.124
CGTGTCAG	-0.0641

Sequence	PBM E-score
AACACAAA	0.0645
TCAAAGCA	-0.0304
CATTGTCG	-0.138
ACGTTACT	0.0376
ACAGTCAA	0.168
AGAGTAAA	0.0304
GCGAGCTA	-0.00627
GGACGCAA	-0.101
ATAGTAAC	0.116
ATGCGTCC	-0.266
CTGTGTGC	-0.0829
CACAGGAG	-0.075
CTCGAACC	-0.114
CGTGCCCC	-0.302
CGCTACGA	-0.0121
TAACAGTA	0.113
ACCGACAG	-0.135
ACCGAGTC	-0.175
ACTATATA	0.309
CCCGACCC	-0.269
CTGATAAA	0.25
GATAGCCA	-0.0389

Sequence	PBM E-score
AGGCCCAG	-0.24
CATGCTAC	-0.0247
GGCGGCCA	-0.204
ATTTACGC	0.149
ATATTCGG	0.0327
TATACTAA	0.0233
AGTTGAGA	-0.0349
GCTTGCTA	-0.0945
CGCACACA	0.0069
AAGTTTCA	0.24
CGTCAGTC	0.0529
GGCGCCAA	-0.0673
CCCGCGGG	-0.216
ATCGTCTG	-0.112
GGACCGTA	-0.208
ACGTGCCA	-0.191
GCACAGAA	-0.00797
CATACCAA	0.189
CTGCGTTC	-0.00942
CCGGAGTA	0.133
ACTGGGAC	-0.0668
AGACGATC	-0.242

Sequence	PBM E-score
AACAACGT	0.0838
GCACAGCA	-0.0918
AGAATCAT	0.152
ACAAGTGC	-0.093
CGGCCTTA	-0.00193
CTCGAGCA	0.0129
CTTCATCC	-0.0751
AACACCCT	-0.026
ACAGATGA	-0.0859
AAACCAGA	0.0968
ACGGGGAA	0.0497
AGCGATGC	-0.168
ATTGGTAA	0.173
GCGTGGCC	-0.193
GCAAACTA	0.138
CAGAAACA	0.0493
AATCCGAT	0.237
CCAGTGTC	-0.00819
GGACTGAA	-0.141
ACGGAATG	-0.153
